From the supplement of paper PMC12217912
This is one part of the list. Sequences were assembled here from the parent chain. Inactive controls read about 0.05.

B1: TEV protease; numbered along this chain (parent)
chain: MGESLFKGPRDYNPISSSICHLTNESDGHTTSLYGIGFGPFIITNKHLFRRNNGTLVVQSLHGVFKVKDTTTLQQHLVDGRDMIIIRMPKDFPPFPQKLKFREPQREERICLVTTNFQTKSMSSMVSDTSCTFPSGDGIFWKHWIQTKDGQCGSPLVSTRDGFIVGIHSASNFTNTNNYFTSVPKNFMELLTNQEAQQWVSGWRLNADSVLWGGHKVFMVKPEEPFQPVKEATQL

Variants of: B1
Assay: raw area under fraction-flipped curve 0-4 h after induction (AUC4h, not background-subtracted), DNA-recorder readout of cleavage of the substrate (dimensionless); higher = more cleavage of the substrate by the protease variant
Conditions: temperature: 34 °C; time window: 0-4 h after rhamnose induction
Experimental: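 In vivo DNA recorder in E. coli TOP10(DE3) ΔrhaA at 34 °C. Each TEVp single-site mutant (parent TEVp 0) is paired with a single-site variant of the 7-mer TEVs (canonical ENLYFQ|S). The substrate sits between flexible linkers in a Bxb1-sfGFP-TEVs-SsrA fusion, so cleavage stabilises Bxb1 and speeds flipping of a recombination array, read by NGS. The value is the raw area under the fraction-flipped curve over 0-4 h after rhamnose induction (AUC4h), with ≥20 reads per time point. It is not background-subtracted; inactive controls average about 0.047.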
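Further: Bxb1 expression induced with 0.2% (w/v) L-rhamnose at OD600 near 0.5, cultures sampled hourly, flipped fraction per protease–substrate barcode pair counted by paired-end Illumina sequencing.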

Variant	area with substrate ENLYFQA	area with substrate ENLYFQC	area with substrate ENLYFQG	area with substrate ENLYFQK	area with substrate ENLYFQL	area with substrate ENLYFQM	area with substrate ENLYFQN	area with substrate ENLYFQP	area with substrate ENLYFQR	area with substrate ENLYFQS	area with substrate ENLYFQT	area with substrate ENLYFQV	area with substrate ENLYFQW	area with substrate ENLYFQY	area with substrate ENLYFQF	area with substrate ENLYFQH	area with substrate ENLYFQI	area with substrate ENLYFQQ	area with substrate ENLYFQD	area with substrate ENLYFQE
W203G	0.056	0.0465	0.0746	0.0613	0.0583	0.0774	0.0519	0.0538	0.0637	0.062	0.0613	0.0521	0.047	0.0488	–	–	–	–	–	–
W203N	0.0684	–	0.0476	–	0.0595	0.0506	0.0567	0.0708	0.0839	0.064	0.0572	–	0.0568	0.0632	0.0445	0.0548	0.0537	0.0532	–	–
R204F	0.112	0.145	0.0957	0.0632	0.0637	0.0909	0.0661	0.0507	0.0649	0.113	0.0733	0.0635	0.0753	–	–	0.0848	0.0591	0.0903	–	–
R204L	0.099	0.12	0.11	0.0613	0.0563	0.0852	0.0707	0.0551	0.0583	0.0966	0.0667	0.045	0.0701	0.0814	0.0516	0.0766	0.0446	–	0.0696	–
L205G	0.0821	–	0.0681	0.0575	0.057	0.0475	–	0.0584	0.0572	0.0718	0.0536	–	0.0614	0.0607	0.0384	0.0583	0.0514	0.0313	0.085	–
L205M	0.0994	0.122	0.111	0.0716	0.0624	0.1	0.0913	–	0.0545	0.118	0.0613	0.0609	0.0561	0.0839	–	–	0.0639	0.0817	–	0.0453
S209V	0.109	0.106	0.0983	0.0735	0.0615	0.0871	0.0794	–	–	0.101	0.0686	0.0711	–	–	–	0.0897	–	–	0.0804	–
L211Q	0.121	0.147	0.131	0.0592	0.065	0.0912	0.102	–	0.062	0.103	0.0667	–	0.0727	0.0587	–	–	0.0561	–	0.0647	–
V217C	0.0906	–	–	0.0543	0.0653	0.0746	0.0787	–	0.0608	0.0937	0.0599	0.0717	0.0602	0.0882	–	–	0.0595	–	0.0628	0.0544
M219S	0.0918	0.103	–	0.0655	0.0724	0.0671	0.0716	–	0.0576	0.0986	0.0553	0.0509	0.0634	0.0569	–	–	0.0596	–	0.0624	–
V220W	0.0614	0.115	0.091	–	0.071	–	0.0746	0.0765	–	0.0894	0.063	0.0614	0.0549	0.0684	0.0553	–	0.0579	0.0836	0.0775	–
P222F	0.0817	0.102	0.0769	0.0749	0.0576	0.0724	0.0676	0.0517	0.0664	0.0827	0.0645	0.0637	0.0706	0.0641	0.0672	0.0728	0.0537	–	0.0674	–
